Some of the results follow.
Legend:
Assay in all cases: glycan array binding signal (z-score within array); higher = stronger binding
Details in all cases: glycan notation: IUPAC condensed, linker removed
Gal(b1-4)Glc = molecular target: Gal(b1-4)Glc
Outline: (§1)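 From the Consortium for Functional Glycomics database, 3228 arrays were curated, keeping only those whose protein sequence was available. Binding is given as a within-array Z-score averaged across arrays sharing a protein sequence and across linkers. Negative Z-scores can be read as non-binding.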

Gal(b1-4)Glc6S = molecular target: Gal(b1-4)Glc6S
Outline: as §1

Gal(b1-4)GlcNAc = molecular target: Gal(b1-4)GlcNAc
Outline: as §1

[1] = molecular target: Gal(b1-4)GlcNAc(a1-6)Gal(b1-4)GlcNAc
Outline: as §1

Gal(b1-4)GlcNAc(b1-2)Man = molecular target: Gal(b1-4)GlcNAc(b1-2)Man
Outline: as §1

[2] = molecular target: Gal(b1-4)GlcNAc(b1-2)Man(a1-3)Man(b1-4)GlcNAc(b1-4)GlcNAc
Outline: as §1

[3] = molecular target: Gal(b1-4)GlcNAc(b1-2)Man(a1-3)[Gal(b1-4)GlcNAc(b1-2)Man(a1-6)]Man(b1-4)GlcNAc(b1-4)GlcNAc
Outline: as §1

[4] = molecular target: Gal(b1-4)GlcNAc(b1-2)Man(a1-3)[Gal(b1-4)GlcNAc(b1-2)Man(a1-6)]Man(b1-4)GlcNAc(b1-4)[Fuc(a1-6)]GlcNAc
Outline: as §1

[5] = molecular target: Gal(b1-4)GlcNAc(b1-2)Man(a1-3)[Gal(b1-4)GlcNAc(b1-2)Man(a1-6)][Gal(b1-4)GlcNAc(b1-4)]Man(b1-4)GlcNAc(b1-4)[Fuc(a1-6)]GlcNAc
Outline: as §1

[6] = molecular target: Gal(b1-4)GlcNAc(b1-2)Man(a1-3)[Gal(b1-4)GlcNAc(b1-2)Man(a1-6)][GlcNAc(b1-4)]Man(b1-4)GlcNAc(b1-4)[Fuc(a1-6)]GlcNAc
Outline: as §1

[7] = molecular target: Gal(b1-4)GlcNAc(b1-2)Man(a1-3)[GlcNAc(b1-2)Man(a1-6)]Man(b1-4)GlcNAc(b1-4)GlcNAc
Outline: as §1

[8] = molecular target: Gal(b1-4)GlcNAc(b1-2)Man(a1-3)[GlcNAc(b1-4)][Gal(b1-4)GlcNAc(b1-2)Man(a1-6)]Man(b1-4)GlcNAc(b1-4)GlcNAc
Outline: as §1

[9] = molecular target: Gal(b1-4)GlcNAc(b1-2)Man(a1-3)[Man(a1-6)]Man(b1-4)GlcNAc(b1-4)GlcNAc
Outline: as §1

[10] = molecular target: Gal(b1-4)GlcNAc(b1-2)Man(a1-6)Man(b1-4)GlcNAc(b1-4)GlcNAc
Outline: as §1

[11] = molecular target: Gal(b1-4)GlcNAc(b1-2)Man(a1-6)[GlcNAc(b1-2)Man(a1-3)]Man(b1-4)GlcNAc(b1-4)GlcNAc
Outline: as §1

[12] = molecular target: Gal(b1-4)GlcNAc(b1-2)Man(a1-6)[Man(a1-3)]Man(b1-4)GlcNAc(b1-4)GlcNAc
Outline: as §1

[13] = molecular target: Gal(b1-4)GlcNAc(b1-2)[Gal(b1-4)GlcNAc(b1-4)]Man(a1-3)[Gal(b1-4)GlcNAc(b1-2)Man(a1-6)]Man(b1-4)GlcNAc(b1-4)GlcNAc
Outline: as §1

[14] = molecular target: Gal(b1-4)GlcNAc(b1-2)[Gal(b1-4)GlcNAc(b1-4)]Man(a1-3)[Gal(b1-4)GlcNAc(b1-2)[Gal(b1-4)GlcNAc(b1-6)]Man(a1-6)]Man(b1-4)GlcNAc(b1-4)GlcNAc
Outline: as §1

[15] = molecular target: Gal(b1-4)GlcNAc(b1-2)[Gal(b1-4)GlcNAc(b1-4)]Man(a1-3)[GlcNAc(b1-4)][Gal(b1-4)GlcNAc(b1-2)Man(a1-6)]Man(b1-4)GlcNAc(b1-4)GlcNAc
Outline: as §1

[16] = molecular target: Gal(b1-4)GlcNAc(b1-2)[Gal(b1-4)GlcNAc(b1-4)]Man(a1-3)[GlcNAc(b1-4)][Gal(b1-4)GlcNAc(b1-2)[Gal(b1-4)GlcNAc(b1-6)]Man(a1-6)]Man(b1-4)GlcNAc(b1-4)GlcNAc
Outline: as §1

[17] = molecular target: Gal(b1-4)GlcNAc(b1-2)[Gal(b1-4)GlcNAc(b1-6)]Man(a1-6)[Gal(b1-4)GlcNAc(b1-2)Man(a1-3)]Man(b1-4)GlcNAc(b1-4)GlcNAc
Outline: as §1

[18] = molecular target: Gal(b1-4)GlcNAc(b1-2)[Gal(b1-4)GlcNAc(b1-6)]Man(a1-6)[Gal(b1-4)GlcNAc(b1-2)Man(a1-3)]Man(b1-4)GlcNAc(b1-4)[Fuc(a1-6)]GlcNAc
Outline: as §1

B1: FimA-N3 (Actinomyces oris) (protein)
chain: MHHHHHHSSGVDLGTENLYFQSNAGLQGAQFQLYKAKNAYANTCSNEKEGAPIAINGQTTLTTDAQGAIDIKGLFISDSIDGADRDNQVNAMERCYVLVETKAPAGYVLPAGNGAATPVKVKAGEETTDN
glycan array binding signal (z-score) (Gal(b1-4)Glc): -0.147
glycan array binding signal (z-score) (Gal(b1-4)Glc6S): -0.058
glycan array binding signal (z-score) (Gal(b1-4)GlcNAc): -0.412
glycan array binding signal (z-score) [1]: 0.279
glycan array binding signal (z-score) (Gal(b1-4)GlcNAc(b1-2)Man): 0.072
glycan array binding signal (z-score) [2]: 0.291
glycan array binding signal (z-score) [3]: -0.47
glycan array binding signal (z-score) [4]: 0.119
glycan array binding signal (z-score) [5]: -0.318
glycan array binding signal (z-score) [6]: -0.521
glycan array binding signal (z-score) [7]: 0.194
glycan array binding signal (z-score) [8]: -0.378
glycan array binding signal (z-score) [9]: -0.153
glycan array binding signal (z-score) [10]: -0.27
glycan array binding signal (z-score) [11]: -0.327
glycan array binding signal (z-score) [12]: -0.087
glycan array binding signal (z-score) [13]: -0.413
glycan array binding signal (z-score) [14]: -0.618
glycan array binding signal (z-score) [15]: -0.499
glycan array binding signal (z-score) [16]: -0.59
glycan array binding signal (z-score) [17]: -0.416
glycan array binding signal (z-score) [18]: -0.499
